According to the supplement of paper PMC4466236:
Over roughly 33,000 sequences, “E-score (dimensionless, -0.5 to 0.5)” has its median near -0.058; the highest 2% begin near 0.35. This is one part of the list.

These sequences were tested on MvaT (assay: PBM 8-mer E-score (mean of HK and ME arrays) (E-score (dimensionless, -0.5 to 0.5)); higher = stronger relative binding preference; most listed sequences are background and not binding sites).
How it was run: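 Reported values are rank-based E-scores, taken as the mean of two universal arrays and parsed with a custom script. Each 8-mer score falls between -0.5 and 0.5. The arrays, ME and HK, were double-stranded 60-mers with a constant 25-mer primer region and a variable 35-mer region covering all 8-mers. They were probed, by an earlier protocol, with full-length P. aeruginosa MvaT carrying an N-terminal glutathione S-transferase fusion.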

| Sequence | PBM 8-mer E-score |
| --- | --- |
| AAAGGATT | -0.0352 |
| CAACCACA | -0.0394 |
| CGCCCCGC | -0.284 |
| ACATAGAC | 0.2 |
| ACACATCC | 0.0566 |
| GACTGCAA | -0.05 |
| AAGGCAAT | 0.0531 |
| ATAGCCTG | -0.159 |
| AAGCCCAG | -0.199 |
| GGTGTTGA | 0.0185 |
| AACGTACT | 0.0808 |
| TCCAATAA | 0.214 |
| CCCCGGGG | -0.355 |
| ATTTCTAC | 0.103 |
| ACTACTTG | 0.235 |
| GCACGTGA | -0.00311 |
| AACTTAAC | 0.323 |
| GAAGCACA | -0.0798 |
| CAATCCCG | 0.0103 |
| ATACCGTG | -0.143 |
| GCGTGTCC | -0.236 |
| ACACATGT | -0.0302 |

| Sequence | PBM 8-mer E-score |
| --- | --- |
| CATTCAGA | 0.00448 |
| ATCCGCTA | 0.0484 |
| ACCTGGGC | -0.147 |
| GGTTGAAC | -0.0388 |
| CATTAACG | 0.143 |
| AAGAATCA | 0.0343 |
| ATATCACG | 0.243 |
| CGCATAAA | 0.105 |
| ATTAAGAC | 0.255 |
| CCTGATTC | 0.0142 |
| ACCCCGGA | -0.207 |
| TGTACACA | -0.00119 |
| GCACTCAA | -0.124 |
| AATCAAAT | 0.229 |
| ACCAGAAC | -0.0716 |
| AGAAAGGA | -0.119 |
| ATTTAACA | 0.376 |
| CGCGTCAG | -0.159 |
| GAGAGGAA | -0.168 |
| ATACTCAT | 0.175 |
| CCAATTCC | 0.0341 |
| ATTATCGC | 0.142 |

| Sequence | PBM 8-mer E-score |
| --- | --- |
| CGGAAAAA | -0.0606 |
| AACTGTGG | -0.0417 |
| AGGCAGGC | -0.258 |
| ATGGACAA | 0.0796 |
| AGGGTATG | -0.0579 |
| AGAGACTC | -0.164 |
| CGAGTGCG | -0.145 |
| CTAGAGTC | -0.248 |
| ATGTATCG | 0.0953 |
| ATCAGGTG | -0.0852 |
| GTGTAAAC | 0.0891 |
| AAGGCATC | -0.11 |
| CTAAAGCA | -0.0922 |
| ACACTGCA | -0.00818 |
| ACGTTTGG | -0.0109 |
| ACCGGGGA | -0.167 |
| CTTCTTCC | -0.3 |
| AGCCAACC | -0.165 |
| AAGACGAC | -0.103 |
| TGAGATCA | -0.0696 |
| TAAATGCA | 0.335 |
| GGAGTCCA | -0.133 |

| Sequence | PBM 8-mer E-score |
| --- | --- |
| TAATTAAA | 0.447 |
| ATCATTGG | 0.00282 |
| CATCCCTC | -0.0998 |
| CAACGGCG | -0.221 |
| AGTGTTGC | -0.0548 |
| AAGAGAAG | 0.0777 |
| AGCGTTGC | -0.286 |
| AGTCAGAG | -0.21 |
| TAATCGCA | 0.208 |
| AATATGTA | 0.365 |
| AGGTTCGC | -0.259 |
| ACGACAGG | -0.225 |
| ACTCACCC | -0.106 |
| ACTCCGCC | -0.239 |
| TAGAACGA | 0.104 |
| ATACACCC | -0.0142 |
| CAAGTGAA | -0.118 |
| TGAACGAA | 0.071 |
| CGTTTTAG | 0.0439 |
| GGACCACA | -0.0353 |
| GCTCAGGA | -0.177 |
| AAAGTGTT | 0.17 |

| Sequence | PBM 8-mer E-score |
| --- | --- |
| ACGAAGTA | 0.0657 |
| ACTCGGGG | -0.116 |
| GGACTGTA | 0.0546 |
| ACATCGCT | -0.121 |
| CGGCAAAC | 0.0549 |
| AATGCGGT | -0.00428 |
| CCTCCAGA | -0.23 |
| AGGCAGAT | -0.191 |
| AGGTTCCA | -0.194 |
| ATAGGATG | -0.00901 |
| AATCTATA | 0.235 |
| AAGCGTAC | -0.128 |
| CGGGGTGA | -0.309 |
| AGCGAGGC | -0.239 |
| ATAGTAAG | 0.301 |
| CACGTACA | 0.0858 |
| AGTCCGCC | -0.117 |
| CGCAACCG | -0.128 |
| GATTTAGA | 0.0137 |
| GCGAGTTA | 0.0292 |
| CAGCTTCG | -0.181 |
| GACTTCGA | -0.0309 |
